Here are results for 115 sequences from the BET-seq Pho4 binding data (Le et al. 2018).

The other results are listed elsewhere or left out. Values were computed here from the reads of four pooled replicates and scatter widely.

The assay deals with T1, Pho4 (S. cerevisiae) (UniProt P07270).
T1 sequence: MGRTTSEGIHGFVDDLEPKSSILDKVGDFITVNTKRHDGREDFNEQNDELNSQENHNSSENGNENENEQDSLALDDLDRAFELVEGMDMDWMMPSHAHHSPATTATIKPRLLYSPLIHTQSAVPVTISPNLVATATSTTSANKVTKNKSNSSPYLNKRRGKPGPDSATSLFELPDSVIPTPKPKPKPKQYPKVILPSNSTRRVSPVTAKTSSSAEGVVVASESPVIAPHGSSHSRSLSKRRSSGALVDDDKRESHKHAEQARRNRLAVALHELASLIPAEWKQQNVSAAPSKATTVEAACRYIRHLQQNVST
Briefly: relative binding free energy (BET-seq); higher = weaker binding. To be noted: reference: library average.
In the case of GCAGGCACGTGTAGGA, the “relative binding free energy” value is -0.05 kcal/mol.

As for TAGGTCACGTGGTGGT, the “relative binding free energy” value was 0.14 kcal/mol.

As for GCTGTCACGTGTGAAG, the “relative binding free energy” value came to 0.13 kcal/mol.

With GGGATCACGTGTTTTG, the “relative binding free energy” value amounted to 0.32 kcal/mol.

Regarding ATGTACACGTGTCTGA, the “relative binding free energy” value is 0.21 kcal/mol.

Consider TTCGACACGTGGCGTG, for which the “relative binding free energy” value is -0.03 kcal/mol.

As for TCTGACACGTGAGATG, the “relative binding free energy” value stood at 0.45 kcal/mol.

In the case of GGGTTCACGTGGTCAT, the “relative binding free energy” value was 0.29 kcal/mol.

ATGAGCACGTGGTCGT: the “relative binding free energy” value was -0.05 kcal/mol.

For ATATGCACGTGGTCTA, the “relative binding free energy” value was -0.14 kcal/mol.

For TGGGTCACGTGTCTAG, the “relative binding free energy” value is -0.03 kcal/mol.

Consider AGGGTCACGTGCAGTG, for which the “relative binding free energy” value turned out to be 0.08 kcal/mol.

Regarding CTTGTCACGTGTTTTG, the “relative binding free energy” value was found to be 0.18 kcal/mol.

As for TGGGGCACGTGTGAAG, the “relative binding free energy” value is -0.07 kcal/mol.

With GTTTTCACGTGTAACT, the “relative binding free energy” value turned out to be 0.46 kcal/mol.

Regarding TGTTTCACGTGAGCAG, the “relative binding free energy” value was 0.36 kcal/mol.

TTGAGCACGTGGAGAT: the “relative binding free energy” value is -0.04 kcal/mol.

For AGTAGCACGTGAGCGT, the “relative binding free energy” value came to 0.13 kcal/mol.

With TAGATCACGTGATTGA, the “relative binding free energy” value turned out to be 0.24 kcal/mol.

For GGGGTCACGTGGTCTA, the “relative binding free energy” value is -0.03 kcal/mol.

Turning to GTATTCACGTGTCGGA, the “relative binding free energy” value amounted to 0.33 kcal/mol.

Regarding ATAGACACGTGATGGG, the “relative binding free energy” value stood at 0.06 kcal/mol.

With GGGTACACGTGCAGTG, the “relative binding free energy” value is 0.23 kcal/mol.

Turning to GGGCGCACGTGAGTGG, the “relative binding free energy” value was 0.07 kcal/mol.

Turning to ATGGCCACGTGGTGTC, the “relative binding free energy” value was -0.19 kcal/mol.

GGTGTCACGTGTGCAA: the “relative binding free energy” value was -0.01 kcal/mol.

With CCGTGCACGTGGCTTG, the “relative binding free energy” value turned out to be 0.02 kcal/mol.

For the sequence GTGAACACGTGCAGGG, the “relative binding free energy” value stood at 0.03 kcal/mol.

Consider AAAATCACGTGTATGT, for which the “relative binding free energy” value worked out at 0.15 kcal/mol.

On to TCGGACACGTGTTTGT, for which the “relative binding free energy” value was -0.02 kcal/mol.

Take GGTTACACGTGCTTGG: the “relative binding free energy” value came out at 0.14 kcal/mol.

For the sequence ATATTCACGTGGGGCT, the “relative binding free energy” value amounted to 0.18 kcal/mol.

As for GGATACACGTGAGAGG, the “relative binding free energy” value is 0.39 kcal/mol.

Take TTAGTCACGTGTTCTT: the “relative binding free energy” value was 0.09 kcal/mol.

As for TCTGGCACGTGGCGGA, the “relative binding free energy” value was -0.23 kcal/mol.

As for CGTGTCACGTGGTAGA, the “relative binding free energy” value was -0.12 kcal/mol.

Turning to TATAACACGTGTTGGT, the “relative binding free energy” value was -0.06 kcal/mol.

For the sequence TATGGCACGTGGGTGC, the “relative binding free energy” value is -0.15 kcal/mol.

With GCTTGCACGTGTAATT, the “relative binding free energy” value was 0.18 kcal/mol.

With TTAGTCACGTGATGCC, the “relative binding free energy” value was determined as 0.17 kcal/mol.

As to CATTTCACGTGGAGGC, the “relative binding free energy” value was 0.43 kcal/mol.

Take TGGTACACGTGGGGCT: the “relative binding free energy” value was -0.02 kcal/mol.

In the case of CTGCTCACGTGGGGCG, the “relative binding free energy” value worked out at 0.09 kcal/mol.

For the sequence TTTCTCACGTGGTGGC, the “relative binding free energy” value stood at 0.1 kcal/mol.

Turning to AGATGCACGTGTTTGG, the “relative binding free energy” value was -0.05 kcal/mol.

In the case of AGGTTCACGTGGTAGT, the “relative binding free energy” value worked out at 0.3 kcal/mol.

Regarding ATACTCACGTGTAGGG, the “relative binding free energy” value was 0.06 kcal/mol.

CTGTGCACGTGGACGG: the “relative binding free energy” value was -0.05 kcal/mol.

Consider TGGTACACGTGTGTCA, for which the “relative binding free energy” value is -0.01 kcal/mol.

For GGGCTCACGTGAGAGT, the “relative binding free energy” value was determined as 0.28 kcal/mol.

For the sequence AGGATCACGTGCGTTG, the “relative binding free energy” value came out at 0.07 kcal/mol.

Take GGGTACACGTGAAGAG: the “relative binding free energy” value stood at 0.12 kcal/mol.

On to GTGGTCACGTGATAAG, for which the “relative binding free energy” value stood at 0.18 kcal/mol.

Regarding TGATGCACGTGGTATA, the “relative binding free energy” value is -0.14 kcal/mol.

In the case of GGGATCACGTGTGCGG, the “relative binding free energy” value came out at 0.12 kcal/mol.

In the case of GGATCCACGTGGTGGA, the “relative binding free energy” value stood at 0.06 kcal/mol.

In the case of GAAGGCACGTGAGGAG, the “relative binding free energy” value worked out at 0.21 kcal/mol.

Regarding GATTTCACGTGAAAGT, the “relative binding free energy” value came out at 0.34 kcal/mol.

Turning to GTCCTCACGTGGAGGG, the “relative binding free energy” value was found to be 0.27 kcal/mol.

With GATGGCACGTGATCTT, the “relative binding free energy” value came to 0.04 kcal/mol.

For TTATTCACGTGAAGGA, the “relative binding free energy” value amounted to 0.28 kcal/mol.

For AAGTGCACGTGTGGAA, the “relative binding free energy” value stood at 0.06 kcal/mol.

Regarding TGTCTCACGTGTATGC, the “relative binding free energy” value amounted to 0.25 kcal/mol.

For CAGGTCACGTGAGTGT, the “relative binding free energy” value was found to be 0.24 kcal/mol.

In the case of AAGGGCACGTGGATGT, the “relative binding free energy” value was -0.17 kcal/mol.

On to GTGAGCACGTGCGGGG, for which the “relative binding free energy” value is -0.15 kcal/mol.

For TAATGCACGTGTAAGT, the “relative binding free energy” value came to 0.03 kcal/mol.

Regarding GGGGTCACGTGAAATA, the “relative binding free energy” value was 0.3 kcal/mol.

As to CTGGGCACGTGGGTCA, the “relative binding free energy” value was -0.37 kcal/mol.

In the case of AGTTACACGTGGTTGG, the “relative binding free energy” value turned out to be 0.11 kcal/mol.

For GATTCCACGTGTGGGT, the “relative binding free energy” value turned out to be 0.31 kcal/mol.

Consider TATTACACGTGGGAGG, for which the “relative binding free energy” value is 0.02 kcal/mol.

Regarding TTGGTCACGTGGACTG, the “relative binding free energy” value worked out at 0.04 kcal/mol.

Consider GCTTTCACGTGGCGGG, for which the “relative binding free energy” value turned out to be 0.15 kcal/mol.

As to CTTTACACGTGGGGTA, the “relative binding free energy” value was -0.05 kcal/mol.

Take TGATTCACGTGGAGTA: the “relative binding free energy” value was found to be 0.21 kcal/mol.

With AGATGCACGTGGTTAG, the “relative binding free energy” value is -0.07 kcal/mol.

Regarding ATTGGCACGTGTGGGG, the “relative binding free energy” value was found to be 0 kcal/mol.

Turning to GGGGCCACGTGTGAGA, the “relative binding free energy” value came to 0.06 kcal/mol.

Turning to GAGGCCACGTGGTGGC, the “relative binding free energy” value was found to be 0.02 kcal/mol.

As for GTTAGCACGTGCGGGC, the “relative binding free energy” value was found to be 0.16 kcal/mol.

For TGTGGCACGTGAGATA, the “relative binding free energy” value turned out to be 0.14 kcal/mol.

Turning to GTAGTCACGTGTTAGA, the “relative binding free energy” value was 0.12 kcal/mol.

With GATGTCACGTGGTAAT, the “relative binding free energy” value was determined as 0.13 kcal/mol.

Turning to GCTAGCACGTGGTTAG, the “relative binding free energy” value was -0.08 kcal/mol.

For the sequence GTGGTCACGTGGTTAA, the “relative binding free energy” value stood at 0.19 kcal/mol.

As for TCTGGCACGTGTTGAA, the “relative binding free energy” value is -0.11 kcal/mol.

Regarding GGAGGCACGTGAGCAG, the “relative binding free energy” value turned out to be 0.02 kcal/mol.

In the case of TATATCACGTGTGAAT, the “relative binding free energy” value amounted to 0.13 kcal/mol.

With GGTGCCACGTGTCTGG, the “relative binding free energy” value is -0.01 kcal/mol.

For TTTGCCACGTGTGAGA, the “relative binding free energy” value was -0.04 kcal/mol.

For TGGGTCACGTGACAAT, the “relative binding free energy” value came to 0.21 kcal/mol.

In the case of ATATGCACGTGTGTGC, the “relative binding free energy” value was -0.13 kcal/mol.

Consider GTGGGCACGTGTGCTC, for which the “relative binding free energy” value was -0.05 kcal/mol.

Consider TTTAGCACGTGAGGAA, for which the “relative binding free energy” value was 0.18 kcal/mol.

AGAGGCACGTGTATTG: the “relative binding free energy” value is -0.22 kcal/mol.

On to TTGGACACGTGGGCAG, for which the “relative binding free energy” value is -0.18 kcal/mol.

Turning to GAGTTCACGTGGCTTA, the “relative binding free energy” value was 0.23 kcal/mol.

Regarding TGCGGCACGTGGTTGT, the “relative binding free energy” value was -0.17 kcal/mol.

Turning to TGGTACACGTGACAGT, the “relative binding free energy” value is 0.08 kcal/mol.

As to TCGTTCACGTGCTTGG, the “relative binding free energy” value was 0.31 kcal/mol.

Turning to CTTTTCACGTGGTTTT, the “relative binding free energy” value was determined as 0.33 kcal/mol.

Take TCGTGCACGTGGGGTA: the “relative binding free energy” value was -0.13 kcal/mol.

As for ATGGACACGTGTGTTT, the “relative binding free energy” value was 0.03 kcal/mol.

Take TATTTCACGTGGGCGG: the “relative binding free energy” value came to 0.11 kcal/mol.

For the sequence AATGGCACGTGGAGTG, the “relative binding free energy” value stood at 0.02 kcal/mol.

Take TTGGGCACGTGCCTAG: the “relative binding free energy” value was -0.2 kcal/mol.

In the case of GTCGTCACGTGCGGTA, the “relative binding free energy” value is 0.24 kcal/mol.

For AGGAACACGTGAGGAT, the “relative binding free energy” value amounted to 0.44 kcal/mol.

As to GGGTACACGTGTCGGT, the “relative binding free energy” value stood at 0.21 kcal/mol.

For the sequence ATAGTCACGTGGCGTA, the “relative binding free energy” value is 0 kcal/mol.

Consider CTAGTCACGTGTGGGA, for which the “relative binding free energy” value came out at 0.15 kcal/mol.

As to TTAGACACGTGGATTT, the “relative binding free energy” value is 0.22 kcal/mol.

For the sequence TGATGCACGTGAGATA, the “relative binding free energy” value stood at 0.19 kcal/mol.

Take ATGTCCACGTGTTGTA: the “relative binding free energy” value was -0.06 kcal/mol.
